The record followed here is the supplement of paper PMC5655136.

Read counts after selection give these values, which scatter widely.
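Also: shRNA barcodes quantified by deep sequencing of PCR amplicons from cellular DNA, counts expressed as percent of each subpool, ratio averaged over two biological duplicates.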

The first data set relates to NB7. The experiment in a line: fold depletion of shRNA, plasmid library share / infected cells without Dox share (9 days) (ratio); higher = more depleted after infection (more toxic, leaky expression from a Tet-inducible vector; NB7 is a neuroblastoma line without caspase-8). To be noted: shRNA pool: CD95L ORF + CD95L 3'UTR + Venus libraries.
As to AAGCAAGAGAGATGTTTTGGG, the “fold depletion of shRNA” value turned out to be 0.956.

As to AGCAGCACGACTTCTTCAAGT, the “fold depletion of shRNA” value was determined as 2.62.

ATGCACACAGCATCATCTTTG: the “fold depletion of shRNA” value worked out at 1.22.

As for GGAACCACAGCACAGGCCTGT, the “fold depletion of shRNA” value is 1.2.

For TACCCCGACCACATGAAGCAG, the “fold depletion of shRNA” value is 0.94.

For TACACTCATCTTAGTGCCTGA, the “fold depletion of shRNA” value was determined as 3.44.

As for ATGAAAACATGTAATAAAAAG, the “fold depletion of shRNA” value came out at 0.671.

With TCAGCGTGTCCGGCGAGGGCG, the “fold depletion of shRNA” value was 0.535.

With CGGGATCACTCTCGGCATGGA, the “fold depletion of shRNA” value stood at 1.36.

As for CGACAAGCAGAAGAACGGCAT, the “fold depletion of shRNA” value was determined as 1.07.

Take GGGTTGCATTTGGTCAAGATT: the “fold depletion of shRNA” value came out at 0.69.

For the sequence GAGGAATATGACGGAAGAACA, the “fold depletion of shRNA” value stood at 1.55.

As to GCCTTGCTACCTCAAGGGGGA, the “fold depletion of shRNA” value is 1.78.

For the sequence TGGTCAATTTTGAGGAATCTC, the “fold depletion of shRNA” value was determined as 1.43.

Turning to ACAAATGGAGGAATATGACGG, the “fold depletion of shRNA” value is 0.974.

With GCTGTACTTTGTATATTCCAA, the “fold depletion of shRNA” value came to 0.903.

TCATTGATTGTCAGCTACTAA: the “fold depletion of shRNA” value came out at 0.558.

The same data set, now with this note: shRNA pool: CD95 ORF + CD95 3'UTR + Venus libraries.
For TACCTACTTCTTTCTCAGGCA, the “fold depletion of shRNA” value turned out to be 1.34.

In the case of TCAAGAATGACAATGTCCAAG, the “fold depletion of shRNA” value came to 1.11.

As to AGCAGCACGACTTCTTCAAGT, the “fold depletion of shRNA” value came out at 3.33.

As to GTCAATGAAGCCAAAATAGAT, the “fold depletion of shRNA” value was determined as 1.45.

In the case of TGCAGCTCGCCGACCACTACC, the “fold depletion of shRNA” value was found to be 1.49.

Take TACCCCGACCACATGAAGCAG: the “fold depletion of shRNA” value is 0.927.

As for AAACTTTTTTTGTAACTCTAC, the “fold depletion of shRNA” value was found to be 0.619.

With ATCTCCAACTTTAAATCCTGA, the “fold depletion of shRNA” value was 1.1.

As for CTGCTACAAATGGCAGCTTAT, the “fold depletion of shRNA” value is 0.995.

Regarding TCAGCGTGTCCGGCGAGGGCG, the “fold depletion of shRNA” value is 0.366.

With CGGGATCACTCTCGGCATGGA, the “fold depletion of shRNA” value stood at 1.59.

On to AAATGTGAACATGGAATCATC, for which the “fold depletion of shRNA” value was 3.94.

For CGACAAGCAGAAGAACGGCAT, the “fold depletion of shRNA” value came to 1.07.

AGTGTTTGAAAAGATTCTTAA: the “fold depletion of shRNA” value is 0.63.

Regarding ATGTTTGACTATTATATATGT, the “fold depletion of shRNA” value turned out to be 1.29.

Take TGGAGTCATGACACTAAGTCA: the “fold depletion of shRNA” value came to 3.53.

Turning to AGTGACTCAGAAAATTCAAAC, the “fold depletion of shRNA” value worked out at 1.83.

Take ACAGAAAACATGCAGAAAGCA: the “fold depletion of shRNA” value amounted to 1.71.

With CTTTTGCTGAAATATCAGTTA, the “fold depletion of shRNA” value was determined as 1.19.

On to CTCTACCTCAAAGACCTTTGC, for which the “fold depletion of shRNA” value is 3.53.

Consider TGGTGTCAATGAAGCCAAAAT, for which the “fold depletion of shRNA” value is 2.01.

Regarding TACTAACTGCTCTCAGAGAAA, the “fold depletion of shRNA” value was determined as 0.699.

On to TTTTAAGAAATAATATTTATA, for which the “fold depletion of shRNA” value amounted to 0.819.

With ACAATGTCCAAGACACAGCAG, the “fold depletion of shRNA” value was determined as 1.27.

TCTGTAGTATGAATGTAATCA: the “fold depletion of shRNA” value was 0.922.

Turning to CATGGAATCATCAAGGAATGC, the “fold depletion of shRNA” value stood at 0.776.

TCTAACATATGATTCTGTAGT: the “fold depletion of shRNA” value came out at 0.923.

As for TTCGTAATTGGCATCAACTTC, the “fold depletion of shRNA” value was found to be 1.5.

As for ATTATACAATATTTCAATTGT, the “fold depletion of shRNA” value stood at 0.982.

For the sequence GGGAAAACAAACTTCATCAAG, the “fold depletion of shRNA” value was determined as 1.05.

Take ACAGAAAGGAAAACCAAGGTT: the “fold depletion of shRNA” value was 3.11.

Take GCAGAACAGAAAGTTCAACTG: the “fold depletion of shRNA” value came to 1.27.

As to TTGAGCAGGAGAGTATTACTA, the “fold depletion of shRNA” value worked out at 0.894.

ACCTCTGGTTCTTACGTCTGT: the “fold depletion of shRNA” value was 4.41.

Regarding TTTTTTACTGGGTACATTTTA, the “fold depletion of shRNA” value came out at 0.854.

With GGAAAGCTAGGGACTGCACAG, the “fold depletion of shRNA” value was 0.684.

In the case of GTACAAATGTCTATCCACAGG, the “fold depletion of shRNA” value was 1.29.

For the sequence TGAGTAAATATATCACCACTA, the “fold depletion of shRNA” value stood at 0.774.
